Reference: PubChem BioAssay AID445 (National Center for Advancing Translational Sciences (NCATS), 2006)
The campaign covered roughly 110,000 compounds. About 40 (0.04%) were called active. This list was built around the results that the source calls inconclusive (neither active nor inactive); the mix of calls is not that of the screen. Calls follow the shape of the dose curve; as a rule, active = well fitted curve in the direction sought with a large enough effect in the signal ratio (not every such curve was filed as active); inconclusive = small, poorly fitted or top-dose-only effect, or a change in a side signal; inactive = flat fitted curve, though single readings scatter; the % refers to the signal ratio. Where the call is inconclusive, the potency comes from a doubtful curve fit.

Assay: IkB Signaling;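 as to IkBa stabilization activation: 0% = basal untreated cells and 100% = reference inhibitor full response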
Settings: ABC-DLBCL IkBa-CBG/CBR dual luciferase ratio (green luciferase fused to IkBa over red control in OCI-Ly3 lymphoma cells), 4 h; IkBa stabilization activation: at 57.1 µM (top of the series), scaled: untreated 0%, proteasome inhibitor 100% unless noted
Method in brief: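 Luminescence ratio of IκBα-fused green versus native red beetle luciferase in OCI-Ly3 cells, 4 h post-doxycycline with compound; red signal alone, scaled from basal (0%) to zero light (-100%), flagged nonspecific or cytotoxic effects.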
Potency is read from the fitted curve at half-maximal effect.

| Compound | IkBa stabilization activation | Potency |
| --- | --- | --- |
| COc1ccccc1CNC(=O)CCNS(=O)(=O)c1cccc2nsnc12 | inconclusive: 0.755% [signal inhibitor] | – |
| COc1cccc(NC(=O)N2CCN(C(=O)c3nsc4ccccc34)CC2)c1 | inconclusive: 1.11% [signal inhibitor] | – |
| Cc1nc2c(c(C)nn2-c2ccccc2)c(C)c1CCC(=O)NCCc1ccc(Cl)cc1 | inconclusive: 2.38% [signal inhibitor] | – |
| C=CCNc1nc2c(c(=O)[nH]c(=O)n2C)n1CCCCC | inactive | – |
| COc1ccc(NC(=O)N2CCN3CCCCC3C2)cc1OC (centres undefined) | inactive | – |
| CCOC(=O)c1cc(C)n(CCc2ccccc2)c1C | inactive | – |
| CCOC(=O)c1cc(-c2ccccc2)n(-c2cccc(C(=O)N(C)c3ccc(C)cc3)c2)c1C | inactive | – |
| Fc1ccc(N2CCN(Cc3cccn3-c3nnc(N4CCN(C5CCCCC5)CC4)s3)CC2)cc1 | inconclusive: -1.83% [signal inhibitor] | – |
| CCc1ccccc1NC(=O)c1cc2c(Cl)nc3ccccc3c2s1 | inconclusive: 1.06% [signal inhibitor] | – |
| COc1cc2[nH]c(=O)n(CCCCCC(=O)N3CCN(c4ccc(Cl)cc4)CC3)c(=O)c2cc1OC | – | inconclusive: 20 µM [rising, partial curve] |
| O=C(CSc1cn(CC(=O)N2CCCC2)c2ccccc12)Nc1ccccc1C(F)(F)F | inconclusive: 1.94% [signal inhibitor] | – |
| Cc1cccc(Cn2c(=O)n(CC3CCC(C(=O)N4CCC(C)CC4)CC3)c(=O)c3sccc32)c1 (centres undefined) | inconclusive: 5.83% [signal inhibitor] | – |
| CC(C)(C)OC(=O)N[C@@H](Cc1ccccc1)c1nnc(S(=O)(=O)Cc2cccc(F)c2)o1 | – | inconclusive: 3.98 µM [rising, partial curve] |
| Cc1ccc(CNC(=O)CN(c2cc(C)cc(C)c2)S(=O)(=O)c2c(C)noc2C)cc1 | inconclusive: -0.328% [signal inhibitor] | – |
| Cc1nc2cc(-c3ccccc3)nn2c(C)c1CCC(=O)NCc1cccc(Cl)c1 | inconclusive: 1.86% [signal inhibitor] | – |
| CCOC(=O)Cc1ccc(NC(=O)N2CC(C)Oc3ccc(Cl)cc32)cc1 (centres undefined) | inactive | – |
| COC(=O)c1ccc(OCC(=O)Nc2nn(-c3ccccc3)nc2C(N)=O)cc1 | inconclusive: 8.01% [signal activator] | – |
| COC(=O)c1ccccc1NC(=O)c1ccc2c(Cl)c3c(nc2c1)CCCC3 | – | inconclusive: 12.6 µM [signal inhibitor] |
| CN(CC(=O)N1CCN(c2ccccn2)CC1)S(=O)(=O)c1ccc2ccccc2c1 | inconclusive: -1.48% [signal inhibitor] | – |
| O=C(Nc1cccc(Br)c1)c1cc(-c2ccc3c(c2)OCCO3)on1 | inconclusive: 17.1% [signal inhibitor] | – |
| CCn1nnc(NC(=O)c2ccc(-c3ccc(Cl)cc3)o2)n1 | inconclusive: 12.4% [signal inhibitor] | – |
| Cc1ccc(-n2cnc3cc(C(=O)NCc4ccccc4Cl)ccc32)c(C)c1 | inconclusive: -0.214% [signal inhibitor] | – |
| COc1ccc(CC(=O)NCc2ccc3c(c2)CCN3C(=O)c2cccc(C)c2)cc1 | inconclusive: -0.47% [signal inhibitor] | – |

| Compound | IkBa stabilization activation | Potency |
| --- | --- | --- |
| CC(Sc1ccc2nnc(-c3ccc(F)cc3)n2n1)C(=O)O (centres undefined) | inactive | – |
| Cc1nc(-n2nc(C)c(Cc3ccc4c(c3)OCO4)c2C)sc1C(=O)Nc1ccc(Cl)cc1 | inconclusive: 1.87% [signal inhibitor] | – |
| Cc1cccc(Cn2cccc2CNS(=O)(=O)c2ccc(C)c(C)c2)c1 | inconclusive: 2.1% [signal inhibitor] | – |
| COc1ccc(C2C(C(=O)Nc3ccccc3)=C(C)Nc3nc(-c4ccccc4Cl)nn32)cc1OC (centres undefined) | inconclusive: 5.95% [signal inhibitor] | – |
| Cc1nc2nc(SCC(=O)N(Cc3ccccc3)C(C)C)nn2c(C)c1Cc1ccccc1Cl | inactive | – |
| Cc1cc(C)n2nc(C(=O)Nc3ccc4c(c3)OCO4)nc2n1 | inactive | – |
| Cc1cc(C)c2sc(N3CCN(C(=O)C4CC4)CC3)nc2c1 | inactive | – |
| COc1ccc(OC)c(NC(=O)CSc2nnc(CCCO)n2-c2ccccc2)c1 | inactive | – |
| COc1ccc(Oc2nc3c(C)cccn3c(=O)c2/C=C(\C#N)c2nc3ccccc3[nH]2)cc1 | inconclusive: 0.31% [signal inhibitor] | – |
| Cc1onc(-c2ccccc2Cl)c1C(=O)OCC(=O)Nc1ccc2c(c1)OCO2 | inconclusive: 1.64% [signal inhibitor] | – |
| Cc1ccccc1CNCCSc1nnnn1-c1ccccc1 | inconclusive: -0.418% [signal inhibitor] | – |
| Cc1ccc(-n2c(=O)c3ccc(C(=O)NCc4ccco4)cc3n(Cc3ccc(Cl)cc3)c2=O)cc1 | inactive | – |
| COc1ccccc1OCc1ccc(C(=O)n2nc(C)c(Cl)c2C)o1 | inconclusive: 13.8% [signal inhibitor] | – |
| O=C(CCC1N=C2c3ccccc3N=C(SCc3ccc(F)cc3)N2C1=O)NCc1ccco1 (centres undefined) | inactive | – |
| Fc1ccc2nc3[nH]c4ccccc4c3nc2c1 | inactive | – |
| CC[C@H](CN(C)C)C(=O)c1ccco1 | inactive: 0.724% [at 11.4 µM, scaled: untreated 0%, proteasome inhibitor 100%] | – |
| COc1ccc(CNC(=O)CCc2c(C)c3cc4c(C)coc4cc3oc2=O)cc1 | inconclusive: 3.64% [signal inhibitor] | – |
| COc1ccc(CNC(=O)c2nc(S(=O)(=O)Cc3ccccc3)ncc2Cl)cc1 | – | inconclusive: 6.31 µM [rising, single point] |
| Cc1cc2ccc(OC(=O)c3ccc(N=C(N)N)cc3)cc2oc1=O | inactive: 1.86% [at 11.4 µM, scaled: untreated 0%, proteasome inhibitor 100%] | – |
| CCOc1ccccc1-n1c(SCC(=O)Nc2nccs2)nnc1-c1ccoc1C | inconclusive: 1.8% [signal inhibitor] | – |
| COc1ccc(CCNC(=O)CCc2c(C)nc3c(-c4ccc(F)cc4)c(C)nn3c2C)cc1OC | inconclusive: 1.08% [signal inhibitor] | – |
| Cc1ccc(-n2c(SCc3nc(-c4ccc(Cl)cc4)no3)nnc2-c2ccncc2)cc1 | inconclusive: 1.61% [signal inhibitor] | – |
| COc1ccc(-c2nc(CSCC(=O)N3CCN(c4cccc(C)c4)C(C)C3)c(C)o2)cc1OC (centres undefined) | inconclusive: -9.29% [signal inhibitor] | – |

| Compound | IkBa stabilization activation | Potency |
| --- | --- | --- |
| CCc1ccc(NC(=O)CN(c2ccc(C)cc2)S(=O)(=O)c2c(C)nn(C)c2C)cc1 | inconclusive: 0.485% [signal inhibitor] | – |
| CCOc1cccc(CC(=O)N2CCc3c([nH]c4ccccc34)C2c2ccc(OC)cc2)c1OCC (centres undefined) | inconclusive: -2.62% [signal inhibitor] | – |
| COc1ccc(-c2c(C)nn3c(C(F)(F)F)cc(C)nc23)cc1OC | inconclusive: -2.89% [signal inhibitor] | – |
| Cc1ccccc1CN1C(=O)c2ccccc2S(=O)c2ccc(C(=O)NCc3ccccc3)cc21 (centres undefined) | inconclusive: 2.33% [signal inhibitor] | – |
| Cc1ccc(CNC(=O)c2cc3c(=O)n4cccc(C)c4nc3n(CC3CCCO3)c2=N)cc1 (centres undefined) | inactive | – |
| CCCc1nn2c(=O)cc(COC(=O)c3ccccc3NC(=O)C3CCCCC3)nc2s1 | inconclusive: 3.79% [signal inhibitor] | – |
| c1cncc(Nc2nc(-c3ccncc3)cs2)c1 | inactive | – |
| Cc1ccc(NC(=O)CC(O)(C(F)(F)F)C(F)(F)F)c(Br)c1 | inconclusive: 2.69% [signal inhibitor] | – |
| COC(=O)c1c(C)sc(-c2c(-c3ccc(F)cc3)[nH]c3[nH]c(=O)[nH]c(=O)c23)c1O | inconclusive: 1.6% [signal inhibitor] | – |
| CCCn1c(=O)n(C)c(=O)c2c(SCc3cc(C(C)=O)ccc3OCC)nc(C3CC3)nc21 | inactive | – |
| Cc1ccc(CNC(=O)c2cnn3c(C)c(Cc4c(F)cccc4Cl)c(C)nc23)cc1 | inconclusive: 1.27% [signal inhibitor] | – |
| CCOc1ccc(CCNC(=O)c2ccc(C)c(-n3c(C)nc4cccnc43)c2)cc1OCC | inconclusive: 2.04% [signal inhibitor] | – |
| Cc1cccc(-c2nnc(SCC(=O)NC3CCCCC3)o2)c1 | inconclusive: 8.42% [signal inhibitor] | – |
| CC(C)(C)OC(=O)N1CC(O)CC1C(=O)OCC(=O)c1ccc(Cl)cc1 (centres undefined) | inactive | – |
| CN1/C(=C\C(=O)COc2ccc3c(c2)OCO3)C(C)(C)c2ccccc21 | inconclusive: 1.99% [signal inhibitor] | – |
| COc1ccc(N(Cc2cccs2)C(=O)COc2ccc([N+](=O)[O-])cc2)cc1 | inconclusive: 4.8% [signal inhibitor] | – |
| CCOc1ccc(-c2cc(CCCC(=O)NCc3cccnc3)no2)cc1 | – | inconclusive: 15.8 µM [signal inhibitor, partial curve] |
| CCOc1ccccc1NC(=O)c1cc2ccc3cccnc3c2[nH]1 | inactive | – |
| CCN(Cc1ccccc1)C(=O)c1cc2ccc3cccnc3c2[nH]1 | inconclusive: -6.16% [signal inhibitor] | – |
| COc1ccccc1N1C(=O)c2ccccc2NC1c1ccncc1 (centres undefined) | inactive | – |
| O=C1c2oc3ccccc3c(=O)c2C(c2cccc(O)c2)N1Cc1ccc(F)cc1 (centres undefined) | inconclusive: 5.2% [signal inhibitor] | – |
| CCOc1ccc(N(CC(=O)Nc2ccc3c(c2)OCO3)S(=O)(=O)c2ccccc2)cc1 | inconclusive: 7.26% [signal inhibitor] | – |
| CC(C)Sc1ncc(Cl)c(C(=O)Nc2c(C(=O)Nc3ccccc3)oc3ccccc23)n1 | inactive | – |
